Among all 110,000 compounds or so, about 40 (0.04%) were called active. The inconclusive results got no clear call from the source; some entries with a clear call stand among them for comparison. Calls follow the shape of the dose curve; as a rule, active = well fitted curve in the direction sought with a large enough effect in the signal ratio (not every such curve was filed as active); inconclusive = small, poorly fitted or top-dose-only effect, or a change in a side signal; inactive = flat fitted curve, though single readings scatter; the % refers to the signal ratio. A potency beside an inconclusive call is a rough fit, not a confirmed value.
Assay: IkB Signaling;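 as to IkBa stabilization activation: 0% = basal untreated cells and 100% = reference inhibitor full response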
Details: ABC-DLBCL IkBa-CBG/CBR dual luciferase ratio (green luciferase fused to IkBa over red control in OCI-Ly3 lymphoma cells), 4 h, scaled: untreated 0%
Summary of the method: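 In this assay, an IκBα–CBG68 fusion accumulates when IKK-driven degradation is blocked; native CBR normalizes for cell number. OCI-Ly3 cells were treated 4 h with compound and doxycycline, then green and red light read after Chroma-Glo addition.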

[1] = IkBa stabilization activation: at 57.1 µM (top of the series), proteasome inhibitor 100% unless noted
Potency is read from the fitted curve at half-maximal effect.

**Q.** Which IkBa stabilization activation [1] does the source give for `O=C(C1CCCN(S(=O)(=O)c2ccccc2)C1)N1CCCc2ccccc21` (stereo not drawn) here?
**A.** inconclusive: 6.86% [signal inhibitor]

**Q.** With `COc1ccc(-c2nnc(NC(=O)c3ccc(S(=O)(=O)N4COCC4(C)C)cc3)o2)cc1` as the compound, how does the IkBa stabilization activation [1] read?
**A.** inconclusive: 16.4% [signal inhibitor]

**Q.** With `COc1ccc(-c2nn(C)c3sc(C(=O)N4CCN(c5ccccc5F)CC4)cc23)cc1OC` as the compound, how does the IkBa stabilization activation [1] read?
**A.** inactive

**Q.** With `Cc1cccc2c1-c1sc(C(=O)NCCc3ccc(Cl)cc3)cc1CO2` as the compound, how does the IkBa stabilization activation [1] read?
**A.** inactive

**Q.** With `Cc1ccc(C)c(CN2C(=O)c3ccccc3Sc3ccc(C(=O)NCc4cccs4)cc32)c1` as the compound, how does the IkBa stabilization activation [1] read?
**A.** inconclusive: 4% [signal inhibitor]

**Q.** With `COc1ccc(NC(=O)c2c(N)c(C(=O)c3ccc(C)cc3)n3ccccc23)cc1OC` as the compound, how does the IkBa stabilization activation [1] read?
**A.** inconclusive: -0.444% [signal inhibitor]

**Q.** With `Cc1cc(C)c2c(-n3cccc3)c(C(=O)NCCCN3CCCCC3)sc2n1` as the compound, how does the IkBa stabilization activation [1] read?
**A.** inactive

**Q.** Which IkBa stabilization activation [1] does the source give for `CCN1CCN(Cc2nc3cc(NC(=O)c4ccccc4[N+](=O)[O-])ccc3n2CC)CC1` here?
**A.** inconclusive: 7.45% [signal inhibitor]

**Q.** For `O=C(Nc1cccc(F)c1)c1ccc2c(c1)OCO2`, which IkBa stabilization activation [1] is on record?
**A.** inconclusive: 6.35% [signal inhibitor]

**Q.** With `Cc1c(Cl)cccc1-n1ncc(C(=O)NCc2cccs2)c1C1CCN(C(=O)OC(C)(C)C)CC1` as the compound, how does the IkBa stabilization activation [1] read?
**A.** inconclusive: -1.48% [signal inhibitor]

**Q.** Which IkBa stabilization activation [1] does the source give for `COCCn1c(=O)c(-c2cc(F)cc(F)c2)nc2cnc(Oc3ccccc3)nc21` here?
**A.** inactive: 6.52% [at 11.4 µM, scaled: untreated 0%, proteasome inhibitor 100%]

**Q.** With `O=C(Nc1ccc(N2CCOCC2)c(Cl)c1)c1ncn[nH]1` as the compound, how does the IkBa stabilization activation [1] read?
**A.** inactive

**Q.** With `Clc1ccc(-c2nnc(-c3ccccc3Cl)o2)cc1` as the compound, how does the IkBa stabilization activation [1] read?
**A.** inactive

**Q.** For `O=C(CSc1nnnn1-c1ccc(Cl)cc1)N1CCc2ccccc2C1`, which IkBa stabilization activation [1] is on record?
**A.** inconclusive: 2.18% [signal inhibitor]

**Q.** For `COc1ccc(CNC(=O)c2ccc3nc(CCc4ccccc4)oc3c2)c(OC)c1`, which IkBa stabilization activation [1] is on record?
**A.** inactive

**Q.** Which IkBa stabilization activation [1] does the source give for `C[C@H](NCCN(C)C)[C@@H]1CCC2C3CCc4cc(O)ccc4[C@H]3CCC21C` (stereo partly drawn) here?
**A.** inactive: 3.84% [at 11.4 µM, scaled: untreated 0%, proteasome inhibitor 100%]

**Q.** Which IkBa stabilization activation [1] does the source give for `COc1ccc(-n2c(Cc3cccn3C)nnc2SCC(=O)Nc2cccc(Cl)c2)cc1` here?
**A.** inconclusive: -3.71% [signal inhibitor]

**Q.** For `CCOc1ccccc1NC(=O)Cn1c(=O)n(Cc2ccco2)c(=O)c2ccc(C(=O)NC3CCCC3)cc21`, which IkBa stabilization activation [1] is on record?
**A.** inactive

**Q.** With `COc1ccc(Cl)cc1NC(=O)Cn1nc(Cc2ccncc2)c2ccccc2c1=O` as the compound, how does the IkBa stabilization activation [1] read?
**A.** inconclusive: 0.0277% [signal inhibitor]

**Q.** Which IkBa stabilization activation [1] does the source give for `Cc1ccc(OC(=O)CSc2nnc(-c3cccs3)o2)cc1C` here?
**A.** inconclusive: 1.83% [signal inhibitor]

**Q.** With `CCOc1ccc(-n2c(SCC(=O)N3CCCCCC3)nc3c([nH]c4ccccc43)c2=O)cc1` as the compound, how does the IkBa stabilization activation [1] read?
**A.** inactive

**Q.** For `CC(C)Cn1c(N)c(C(=O)COC(=O)c2ccc3ccccc3n2)c(=O)n(C)c1=O`, which IkBa stabilization activation [1] is on record?
**A.** inconclusive: 1.95% [signal inhibitor]

**Q.** With `CC(C)(C)C1CCc2c(sc3nnn(CCOc4ccccc4)c(=O)c23)C1` (stereo not drawn) as the compound, how does the IkBa stabilization activation [1] read?
**A.** inconclusive: -0.482% [signal inhibitor]

**Q.** For `COc1cc(NC(=O)c2nc3ccccc3nc2N2CCCCC2)cc(OC)c1OC`, which IkBa stabilization activation [1] is on record?
**A.** inconclusive: 2.18% [signal inhibitor]

**Q.** With `Cc1cccc(-c2nc(CSCC(=O)NCCc3ccc(Cl)cc3)c(C)o2)c1` as the compound, how does the IkBa stabilization activation [1] read?
**A.** inconclusive: 2.8% [signal inhibitor]

**Q.** Which IkBa stabilization activation [1] does the source give for `Cc1ccc(CNC(=O)c2ccc(-c3nc(CS(=O)c4ccccc4)c(C)o3)cc2)cc1` (stereo not drawn) here?
**A.** inconclusive: 0.66% [signal inhibitor]

**Q.** Which IkBa stabilization activation [1] does the source give for `CCCCn1c2c(c(=O)n(C)c1=O)C(CC(=O)OCC(=O)Nc1cccc(C(F)(F)F)c1)C(=O)N2` (stereo not drawn) here?
**A.** inconclusive: 7.08% [signal inhibitor]

**Q.** Which IkBa stabilization activation [1] does the source give for `O=C(CCCn1c(=S)[nH]c2cc3c(cc2c1=O)OCO3)N1CCN(c2ccccc2)CC1` here?
**A.** inconclusive: 4.81% [signal inhibitor]

**Q.** For `COc1cccc(-c2nn(C)c3sc(C(=O)Nc4ccc5c(c4)OCCO5)cc23)c1`, which IkBa stabilization activation [1] is on record?
**A.** inconclusive: 2.41% [signal inhibitor]

**Q.** Which Potency [1] does the source give for `COCCn1ccc2c(OCC(=O)Nc3ccccc3F)cccc2c1=O` here?
**A.** inconclusive: 31.6 µM [signal inhibitor, partial curve]

**Q.** For `CCOC(=O)N1CCc2c(sc3c2c(=O)n(CCc2ccccc2)c(=O)n3CC(=O)Nc2cccc(C)c2)C1`, which IkBa stabilization activation [1] is on record?
**A.** inconclusive: 0.583% [signal inhibitor]

**Q.** With `N#C/C(=C/c1cn(Cc2ccccc2Cl)c2ccccc12)C(=O)Nc1cccc(Cl)c1` as the compound, how does the Potency [1] read?
**A.** inconclusive: 1.26 µM [signal inhibitor, full curve]

**Q.** With `Cc1cc(C)c(NC(=O)Cn2c(=O)nc(-c3ccccc3)c3cc(Cl)ccc32)c(C)c1` as the compound, how does the IkBa stabilization activation [1] read?
**A.** inconclusive: 0.74% [signal inhibitor]

**Q.** With `COc1ccccc1N=c1oc2c(OC)cccc2cc1C(=O)NCc1ccco1` as the compound, how does the IkBa stabilization activation [1] read?
**A.** inconclusive: 6.22% [signal inhibitor]

**Q.** Which IkBa stabilization activation [1] does the source give for `COc1cc(NC(=O)N2CCC3(CC2)Nc2cc(F)ccc2-n2cccc23)cc(OC)c1OC` here?
**A.** inconclusive: 3.14% [signal inhibitor]

**Q.** Which Potency [1] does the source give for `O=C(CSc1nc(-c2ccc(F)cc2)[nH]c1-c1ccccc1)Nc1ccccc1` here?
**A.** inconclusive: 25.1 µM [rising, single point]

**Q.** For `Cc1c(S(=O)(=O)Nc2cccc(Cl)c2)c(=O)n(C)c(=O)n1C`, which IkBa stabilization activation [1] is on record?
**A.** inactive

**Q.** With `O=C(OCc1nnc(-c2ccccc2)o1)c1ccc2c(c1)OCCO2` as the compound, how does the IkBa stabilization activation [1] read?
**A.** inconclusive: 3.77% [signal inhibitor]

**Q.** Which IkBa stabilization activation [1] does the source give for `Clc1ccc(OCc2nc3ccccc3n2Cc2ccccc2)c(Cl)c1` here?
**A.** inconclusive: 0.735% [signal inhibitor]

**Q.** For `COc1ccc(S(=O)(=O)c2c(SC)nn(CC(=O)Nc3cccc(C)c3C)c2N)cc1`, which IkBa stabilization activation [1] is on record?
**A.** inconclusive: 1.63% [signal inhibitor]

**Q.** Which IkBa stabilization activation [1] does the source give for `CCCn1c(SCc2ccccn2)nc2c1c(=O)n(C)c(=O)n2C` here?
**A.** inactive

**Q.** With `Cc1nc2cnc(N(C)C)nc2n(CCc2ccccc2)c1=O` as the compound, how does the IkBa stabilization activation [1] read?
**A.** inactive: 0.868% [at 11.4 µM, scaled: untreated 0%, proteasome inhibitor 100%]

**Q.** With `Cc1[nH]nc2c1C(c1ccc(-c3ccccc3C#N)o1)C(C#N)=C(N)O2` (stereo not drawn) as the compound, how does the IkBa stabilization activation [1] read?
**A.** inconclusive: 2.13% [signal inhibitor]

**Q.** For `CC1=C(C(=O)Nc2ccccc2)C(c2ccncc2)n2nc(SCc3ccccc3F)nc2N1` (stereo not drawn), which IkBa stabilization activation [1] is on record?
**A.** inactive

**Q.** With `O=C(Nc1ccc(OCc2cc(=O)n3ccccc3n2)cc1)c1ccccc1Cl` as the compound, how does the IkBa stabilization activation [1] read?
**A.** inactive

**Q.** Which IkBa stabilization activation [1] does the source give for `Cc1cccc(OCC(O)Cn2c(=N)n(CCN3CCCCC3)c3ccccc32)c1` (stereo not drawn) here?
**A.** inconclusive: -1.61% [signal inhibitor]

**Q.** What about the IkBa stabilization activation (at 57.1 µM (top of the series), proteasome inhibitor 100%) of the same compound?
**A.** inactive: -1.65%

**Q.** For `CCn1cc(C(=O)NCc2ccc(C)cc2)c(=O)c2cc(S(=O)(=O)N(C)C3CCCCC3)ccc21`, which IkBa stabilization activation [1] is on record?
**A.** inconclusive: 0.536% [signal inhibitor]

**Q.** With `CCc1ccc(CN(Cc2ccco2)C(=O)COc2ccc(Cl)c(C)c2)cc1` as the compound, how does the IkBa stabilization activation [1] read?
**A.** inconclusive: 2.29% [signal inhibitor]

**Q.** Which IkBa stabilization activation [1] does the source give for `CCN(c1ccccc1)S(=O)(=O)c1ccc(Oc2ccc(-n3ccnc3)cc2)nc1` here?
**A.** inconclusive: 4.32% [signal inhibitor]

**Q.** With `CCC(C)NC(=O)c1cc(-c2ccccc2O)on1` (stereo not drawn) as the compound, how does the Potency [1] read?
**A.** inconclusive: 20 µM [signal inhibitor, partial curve]

**Q.** Which IkBa stabilization activation [1] does the source give for `Cc1cc(C)n(-c2nc3cc(Cl)ccc3nc2Nc2ccc(CC(=O)O)cc2)n1` here?
**A.** inconclusive: 17% [signal inhibitor]

**Q.** With `COc1ccc2nc(NC(=O)c3nc(SCc4ccccc4F)ncc3Cl)sc2c1` as the compound, how does the IkBa stabilization activation [1] read?
**A.** inactive

**Q.** With `Cc1ccc(Nc2nc(N)nc(CN3CCN(c4ccccc4)CC3)n2)cc1Cl` as the compound, how does the Potency [1] read?
**A.** inconclusive: 31.6 µM [signal inhibitor, single point]

**Q.** Which Potency [1] does the source give for `CCCCn1c(NCc2cc(Br)ccc2O)nc2ccccc21` here?
**A.** inconclusive: 31.6 µM [signal inhibitor, single point]

**Q.** Which IkBa stabilization activation [1] does the source give for `COc1ccccc1CC(=O)NCc1ccc2c(c1)OCO2` here?
**A.** inactive

**Q.** Which Potency [1] does the source give for `Cc1cccc(NC(c2ccccc2C)c2ccc3ccc(C)nc3c2O)n1` (stereo not drawn) here?
**A.** inconclusive: 5.01 µM [rising, full curve]

**Q.** Which IkBa stabilization activation [1] does the source give for `O=C1CSC(=S)N1/N=C\c1ccc(Cl)c([N+](=O)[O-])c1` here?
**A.** inactive: 5.79% [at 11.4 µM, scaled: untreated 0%, proteasome inhibitor 100%]

**Q.** With `Cc1ccc(C(=O)Oc2c(S(=O)(=O)c3ccccc3)c(C)nn2-c2ccccc2)cc1` as the compound, how does the IkBa stabilization activation [1] read?
**A.** inconclusive: -6.6% [signal inhibitor]

**Q.** Which IkBa stabilization activation [1] does the source give for `CN1C(=O)c2ccccc2Sc2ccc(NC(=O)NCc3cccc(Cl)c3)cc21` here?
**A.** inconclusive: 0.0563% [signal inhibitor]

**Q.** With `CC(=O)CC(=O)NC1C2CC3CC(C2)CC1C3` (stereo not drawn) as the compound, how does the IkBa stabilization activation [1] read?
**A.** inactive

**Q.** For `Cc1ccc(Cc2nc3ccccc3nc2SCC(=O)N2CCCc3ccccc32)cc1`, which IkBa stabilization activation [1] is on record?
**A.** inactive

**Q.** With `COc1ccc(-n2c(-c3ccc(C)cc3)cc3c2CC(C)(C)CC3=O)c(OC)c1` as the compound, how does the IkBa stabilization activation [1] read?
**A.** inconclusive: 2.22% [signal inhibitor]

**Q.** Which IkBa stabilization activation [1] does the source give for `CCCCCCCC(=O)O` here?
**A.** inactive

**Q.** For `CC[C@H](NC(C)C)[C@H](O)c1ccc(O)c2[nH]c(=O)ccc12`, which IkBa stabilization activation [1] is on record?
**A.** inactive

**Q.** Which Potency [1] does the source give for `O=c1oc2cc(O)ccc2cc1-c1nnc(Nc2ccccc2F)s1` here?
**A.** inconclusive: 12.6 µM [signal inhibitor, partial curve]

**Q.** Which IkBa stabilization activation [1] does the source give for `CCn1c(C(=O)N2CCC(C(=O)NCCCSC3CCCCC3)CC2)cc2sccc21` here?
**A.** inconclusive: 7.17% [signal inhibitor]

**Q.** With `C=C1CC[C@H]2C(C)(C)[C@H](O)CC[C@]2(C)[C@@H]1COc1ccc2ccc(=O)oc2c1` as the compound, how does the IkBa stabilization activation [1] read?
**A.** inactive: -2.05% [at 11.4 µM, scaled: untreated 0%, proteasome inhibitor 100%]

— PubChem BioAssay AID445 (National Center for Advancing Translational Sciences (NCATS), 2006)
